At least one read-out could not be matched to a standard name with certainty.
Test system: CyclinD1 (CCND1)
Assay: Cyclin D1 (CCND1) percentage degradation in Calu-1 cells (Table 6)
Type: cell-based
Conditions: 16 hours

CNc1ccc(C(=O)Nc2ccc(N(C)C)nn2)c(NC2CC(NC(=O)CN3CCN(c4ccc(Nc5ncc6c(C)c(C(C)=O)c(=O)n(C7CCCC7)c6n5)nc4)CC3)C2)n1 (centres unmarked) [CPD-149, 2-((3-(2-(4-(6-((6-acetyl-8-cyclopentyl-5-methyl-7-oxo-7,8-dihydropyrido[2,3-d]pyrimidin-2-yl)amino)pyridin-3-yl)piperazin-1-yl)acetamido)cyclobutyl)amino)-N-(6-(dimethylamino)pyridazin-3-yl)-6-(methylamino)nicotinamide]
CyclinD1 Degradation (40 nM): A (degradation activity >80%) | CyclinD1 Degradation (200 nM): A (degradation activity >80%)

CNc1ccc(C(=O)Nc2ccc(N(C)C)nn2)c(NC2CC(NC(=O)CCN3CCN(c4ccc(Nc5ncc6c(C)c(C(C)=O)c(=O)n(C7CCCC7)c6n5)nc4)CC3)C2)n1 (centres unmarked) [CPD-150, 2-((3-(3-(4-(6-((6-acetyl-8-cyclopentyl-5-methyl-7-oxo-7,8-dihydropyrido[2,3-d]pyrimidin-2-yl)amino)pyridin-3-yl)piperazin-1-yl)propanamido)cyclobutyl)amino)-N-(6-(dimethylamino)pyridazin-3-yl)-6-(methylamino)nicotinamide]
CyclinD1 Degradation (40 nM): A (degradation activity >80%) | CyclinD1 Degradation (200 nM): A (degradation activity >80%)

CNc1ccc(C(=O)Nc2ccc(N(C)C)nn2)c(NC2CC(NC(=O)N3CCN(c4ccc(Nc5ncc6c(C)c(C(C)=O)c(=O)n(C7CCCC7)c6n5)nc4)CC3)C2)n1 (centres unmarked) [CPD-151, 4-(6-((6-acetyl-8-cyclopentyl-5-methyl-7-oxo-7,8-dihydropyrido[2,3-d]pyrimidin-2-yl)amino)pyridin-3-yl)-N-(3-((3-((6-(dimethylamino)pyridazin-3-yl)carbamoyl)-6-(methylamino)pyridin-2-yl)amino)cyclobutyl)piperazine-1-carboxamide]
CyclinD1 Degradation (40 nM): A (degradation activity >80%) | CyclinD1 Degradation (200 nM): A (degradation activity >80%)

CNc1ccc(C(=O)Nc2cn(C)cn2)c(NC2CC3(CC(NC(=O)CN4CCN(c5ccc(Nc6ncc7c(C)c(C(C)=O)c(=O)n(C8CCCC8)c7n6)nc5)CC4)C3)C2)n1 (centres unmarked) [CPD-152, 2-((6-(2-(4-(6-((6-acetyl-8-cyclopentyl-5-methyl-7-oxo-7,8-dihydropyrido[2,3-d]pyrimidin-2-yl)amino)pyridin-3-yl)piperazin-1-yl)acetamido)spiro[3.3]heptan-2-yl)amino)-N-(1-methyl-1H-imidazol-4-yl)-6-(methylamino)nicotinamide]
CyclinD1 Degradation (40 nM): D (degradation activity <30%) | CyclinD1 Degradation (200 nM): A (degradation activity >80%)

CNc1ccc(C(=O)Nc2ccnn2C)c(NC2CC3(CC(NC(=O)CN4CCN(c5ccc(Nc6ncc7c(C)c(C(C)=O)c(=O)n(C8CCCC8)c7n6)nc5)CC4)C3)C2)n1 (centres unmarked) [CPD-153, 2-((6-(2-(4-(6-((6-acetyl-8-cyclopentyl-5-methyl-7-oxo-7,8-dihydropyrido[2,3-d]pyrimidin-2-yl)amino)pyridin-3-yl)piperazin-1-yl)acetamido)spiro[3.3]heptan-2-yl)amino)-N-(1-methyl-1H-pyrazol-5-yl)-6-(methylamino)nicotinamide]
CyclinD1 Degradation (40 nM): D (degradation activity <30%) | CyclinD1 Degradation (200 nM): D (degradation activity <30%)

CNc1ccc(C(=O)Nc2cccc(C3CC3)n2)c(NC[C@H]2CC[C@H](NC(=O)CN3CCN(c4ccc(Nc5ncc6c(C)c(C(C)=O)c(=O)n(C7CCCC7)c6n5)nc4)CC3)CC2)n1 [CPD-154, 2-(((trans-4-(2-(4-(6-((6-acetyl-8-cyclopentyl-5-methyl-7-oxo-7,8-dihydropyrido[2,3-d]pyrimidin-2-yl)amino)pyridin-3-yl)piperazin-1-yl)acetamido)cyclohexyl)methyl)amino)-N-(6-cyclopropylpyridin-2-yl)-6-(methylamino)nicotinamide]
CyclinD1 Degradation (40 nM): D (degradation activity <30%) | CyclinD1 Degradation (200 nM): D (degradation activity <30%)

CNc1ccc(C(=O)Nc2cccc(C)n2)c(NC2CC3(C2)CN(C(=O)CCN2CCN(c4ccc(Nc5ncc6c(C)c(C(C)=O)c(=O)n(C7CCCC7)c6n5)nc4)CC2)C3)n1 [CPD-155, 2-((2-(3-(4-(6-((6-acetyl-8-cyclopentyl-5-methyl-7-oxo-7,8-dihydropyrido[2,3-d]pyrimidin-2-yl)amino)pyridin-3-yl)piperazin-1-yl)propanoyl)-2-azaspiro[3.3]heptan-6-yl)amino)-6-(methylamino)-N-(6-methylpyridin-2-yl)nicotinamide]
CyclinD1 Degradation (40 nM): A (degradation activity >80%) | CyclinD1 Degradation (200 nM): A (degradation activity >80%)

CNc1ccc(C(=O)Nc2ccc(N(C)C)nn2)c(NC2CC(CCCC(=O)N3CCN(c4ccc(Nc5ncc6c(C)c(C(C)=O)c(=O)n(C7CCCC7)c6n5)nc4)CC3)C2)n1 (centres unmarked) [CPD-156, 2-((3-(4-(4-(6-((6-acetyl-8-cyclopentyl-5-methyl-7-oxo-7,8-dihydropyrido[2,3-d]pyrimidin-2-yl)amino)pyridin-3-yl)piperazin-1-yl)-4-oxobutyl)cyclobutyl)amino)-N-(6-(dimethylamino)pyridazin-3-yl)-6-(methylamino)nicotinamide]
CyclinD1 Degradation (40 nM): B (50%< degradation activity <80%) | CyclinD1 Degradation (200 nM): A (degradation activity >80%)

CNc1ccc(C(=O)Nc2ccc(N(C)C)nn2)c(NC2CC(C(=O)NCCN3CCN(c4ccc(Nc5ncc6c(C)c(C(C)=O)c(=O)n(C7CCCC7)c6n5)nc4)CC3)C2)n1 (centres unmarked) [CPD-157, 2-((3-((2-(4-(6-((6-acetyl-8-cyclopentyl-5-methyl-7-oxo-7,8-dihydropyrido[2,3-d]pyrimidin-2-yl)amino)pyridin-3-yl)piperazin-1-yl)ethyl)carbamoyl)cyclobutyl)amino)-N-(6-(dimethylamino)pyridazin-3-yl)-6-(methylamino)nicotinamide]
CyclinD1 Degradation (40 nM): A (degradation activity >80%) | CyclinD1 Degradation (200 nM): A (degradation activity >80%)

CNc1ccc(C(=O)Nc2ccc(N(C)C)nn2)c(NC2CCC3(C2)CN(C(=O)CCN2CCN(c4ccc(Nc5ncc6c(C)c(C(C)=O)c(=O)n(C7CCCC7)c6n5)nc4)CC2)C3)n1 (centres unmarked) [CPD-158, 2-((2-(3-(4-(6-((6-acetyl-8-cyclopentyl-5-methyl-7-oxo-7,8-dihydropyrido[2,3-d]pyrimidin-2-yl)amino)pyridin-3-yl)piperazin-1-yl)propanoyl)-2-azaspiro[3.4]octan-6-yl)amino)-N-(6-(dimethylamino)pyridazin-3-yl)-6-(methylamino)nicotinamide]
CyclinD1 Degradation (40 nM): A (degradation activity >80%) | CyclinD1 Degradation (200 nM): A (degradation activity >80%)

CNc1ccc(C(=O)Nc2ccon2)c(NC2CC3(CC(NC(=O)CN4CCN(c5ccc(Nc6ncc7c(C)c(C(C)=O)c(=O)n(C8CCCC8)c7n6)nc5)CC4)C3)C2)n1 (centres unmarked) [CPD-159, 2-((6-(2-(4-(6-((6-acetyl-8-cyclopentyl-5-methyl-7-oxo-7,8-dihydropyrido[2,3-d]pyrimidin-2-yl)amino)pyridin-3-yl)piperazin-1-yl)acetamido)spiro[3.3]heptan-2-yl)amino)-N-(isoxazol-3-yl)-6-(methylamino)nicotinamide]
CyclinD1 Degradation (40 nM): D (degradation activity <30%) | CyclinD1 Degradation (200 nM): A (degradation activity >80%)

CNc1ccc(C(=O)Nc2cc(C)on2)c(NC2CC3(CC(NC(=O)CN4CCN(c5ccc(Nc6ncc7c(C)c(C(C)=O)c(=O)n(C8CCCC8)c7n6)nc5)CC4)C3)C2)n1 (centres unmarked) [CPD-160, 2-((6-(2-(4-(6-((6-acetyl-8-cyclopentyl-5-methyl-7-oxo-7,8-dihydropyrido[2,3-d]pyrimidin-2-yl)amino)pyridin-3-yl)piperazin-1-yl)acetamido)spiro[3.3]heptan-2-yl)amino)-6-(methylamino)-N-(5-methylisoxazol-3-yl)nicotinamide]
CyclinD1 Degradation (40 nM): A (degradation activity >80%) | CyclinD1 Degradation (200 nM): A (degradation activity >80%)

CNc1ccc(C(=O)Nc2cccc(OC)n2)c(NC2CC3(CC(NC(=O)CN4CCN(c5ccc(Nc6ncc7c(C)c(C(C)=O)c(=O)n(C8CCCC8)c7n6)nc5)CC4)C3)C2)n1 (centres unmarked) [CPD-161, 2-((6-(2-(4-(6-((6-acetyl-8-cyclopentyl-5-methyl-7-oxo-7,8-dihydropyrido[2,3-d]pyrimidin-2-yl)amino)pyridin-3-yl)piperazin-1-yl)acetamido)spiro[3.3]heptan-2-yl)amino)-N-(6-methoxypyridin-2-yl)-6-(methylamino)nicotinamide]
CyclinD1 Degradation (40 nM): A (degradation activity >80%) | CyclinD1 Degradation (200 nM): A (degradation activity >80%)

CNc1ccc(C(=O)Nc2cccc(C3CC3)n2)c(NC2CC(CNC(=O)CN3CCN(c4ccc(Nc5ncc6c(C)c(C(C)=O)c(=O)n(C7CCCC7)c6n5)nc4)CC3)C2)n1 (centres unmarked) [CPD-162, 2-((3-((2-(4-(6-((6-acetyl-8-cyclopentyl-5-methyl-7-oxo-7,8-dihydropyrido[2,3-d]pyrimidin-2-yl)amino)pyridin-3-yl)piperazin-1-yl)acetamido)methyl)cyclobutyl)amino)-N-(6-cyclopropylpyridin-2-yl)-6-(methylamino)nicotinamide]
CyclinD1 Degradation (40 nM): A (degradation activity >80%) | CyclinD1 Degradation (200 nM): A (degradation activity >80%)

[2H]C([2H])([2H])Nc1ccc(C(=O)Nc2cccc(C3CC3)n2)c(NC2CC3(CC(NC(=O)CN4CCN(c5ccc(Nc6ncc7c(C)c(C(C)=O)c(=O)n(C8CCCC8)c7n6)nc5)CC4)C3)C2)n1 (centres unmarked) [CPD-163, 2-((6-(2-(4-(6-((6-acetyl-8-cyclopentyl-5-methyl-7-oxo-7,8-dihydropyrido[2,3-d]pyrimidin-2-yl)amino)pyridin-3-yl)piperazin-1-yl)acetamido)spiro[3.3]heptan-2-yl)amino)-N-(6-cyclopropylpyridin-2-yl)-6-((methyl-d3)amino)nicotinamide]
CyclinD1 Degradation (40 nM): A (degradation activity >80%) | CyclinD1 Degradation (200 nM): A (degradation activity >80%)

CNc1ccc(C(=O)Nc2ccc(N(C)C)nn2)c(NC2CC(COCC(=O)N3CCN(c4ccc(Nc5ncc6c(C)c(C(C)=O)c(=O)n(C7CCCC7)c6n5)nc4)CC3)C2)n1 (centres unmarked) [CPD-164, 2-((3-((2-(4-(6-((6-acetyl-8-cyclopentyl-5-methyl-7-oxo-7,8-dihydropyrido[2,3-d]pyrimidin-2-yl)amino)pyridin-3-yl)piperazin-1-yl)-2-oxoethoxy)methyl)cyclobutyl)amino)-N-(6-(dimethylamino)pyridazin-3-yl)-6-(methylamino)nicotinamide]
CyclinD1 Degradation (40 nM): A (degradation activity >80%) | CyclinD1 Degradation (200 nM): A (degradation activity >80%)

Reference: patent publication US20260297081A1, “COMPOUNDS AND METHODS OF TREATING CANCERS” (Cullgen Inc., priority 2023, published 2026)
